Data: ChEMBL document CHEMBL1154674, “Synthesis and evaluation of three 18F-labeled aminophenylbenzothiazoles as amyloid imaging agents” (J Med Chem, 2009)
This continues a long series; more values of the same kind are listed elsewhere.

Key:
Format in all cases: ADME, organism-based, Macaca mulatta
[1] = Drug level in normal rhesus monkey thalamus assessed as standard uptake value at 96.3 MBq, iv after 145 mins by microPET; settings: in vivo
[2] = Drug level in normal rhesus monkey white matter assessed as standard uptake value at 96.3 MBq, iv after 10 mins by microPET; settings: in vivo
[3] = Drug level in normal rhesus monkey pons assessed as standard uptake value at 96.3 MBq, iv after 115 mins by microPET; settings: in vivo
[4] = Drug level in normal rhesus monkey pons assessed as standard uptake value at 96.3 MBq, iv after 0.5 mins by microPET; settings: in vivo
[5] = Drug level in normal rhesus monkey parietal cortex assessed as standard uptake value at 96.3 MBq, iv after 57.5 mins by microPET; settings: in vivo
[6] = Drug level in normal rhesus monkey cerebellum assessed as standard uptake value at 96.3 MBq, iv after 75 mins by microPET; settings: in vivo, 1.25 h
[7] = Drug level in normal rhesus monkey parietal cortex assessed as standard uptake value at 96.3 MBq, iv after 8 mins by microPET; settings: in vivo
[8] = Drug level in normal rhesus monkey white matter assessed as standard uptake value at 96.3 MBq, iv after 115 mins by microPET; settings: in vivo
[9] = Drug level in normal rhesus monkey frontal cortex assessed as standard uptake value at 96.3 MBq, iv after 37.5 mins by microPET; settings: in vivo, 0.625 h
[10] = Drug level in normal rhesus monkey parietal cortex assessed as standard uptake value at 96.3 MBq, iv after 52.5 mins by microPET; settings: in vivo, 0.875 h
[11] = Drug level in normal rhesus monkey frontal cortex assessed as standard uptake value at 96.3 MBq, iv after 75 mins by microPET; settings: in vivo, 1.25 h
[12] = Drug level in normal rhesus monkey white matter assessed as standard uptake value at 96.3 MBq, iv after 32.5 mins by microPET; settings: in vivo
[13] = Drug level in normal rhesus monkey cerebellum assessed as standard uptake value at 96.3 MBq, iv after 155 mins by microPET; settings: in vivo
[14] = Drug level in normal rhesus monkey frontal cortex assessed as standard uptake value at 96.3 MBq, iv after 22.5 mins by microPET; settings: in vivo, 0.375 h
[15] = Drug level in normal rhesus monkey pons assessed as standard uptake value at 96.3 MBq, iv after 2.5 mins by microPET; settings: in vivo
[16] = Drug level in normal rhesus monkey pons assessed as standard uptake value at 96.3 MBq, iv after 3.5 mins by microPET; settings: in vivo
[17] = Drug level in normal rhesus monkey white matter assessed as standard uptake value at 96.3 MBq, iv after 65 mins by microPET; settings: in vivo
[18] = Drug level in normal rhesus monkey white matter assessed as standard uptake value at 109.4 MBq, iv after 123 mins by microPET; settings: in vivo, 2.05 h
[19] = Drug level in normal rhesus monkey white matter assessed as standard uptake value at 109.4 MBq, iv after 129 mins by microPET; settings: in vivo, 2.15 h
[20] = Drug level in normal rhesus monkey parietal cortex assessed as standard uptake value at 109.4 MBq, iv after 12.5 mins by microPET; settings: in vivo
[21] = Drug level in normal rhesus monkey white matter assessed as standard uptake value at 109.4 MBq, iv after 81 mins by microPET; settings: in vivo, 1.35 h
[22] = Drug level in normal rhesus monkey parietal cortex assessed as standard uptake value at 109.4 MBq, iv after 1.5 mins by microPET; settings: in vivo, 0.025 h
[23] = Drug level in normal rhesus monkey thalamus assessed as standard uptake value at 109.4 MBq, iv after 1.5 mins by microPET; settings: in vivo, 0.025 h
[24] = Drug level in normal rhesus monkey cerebellum assessed as standard uptake value at 109.4 MBq, iv after 69 mins by microPET; settings: in vivo, 1.15 h
[25] = Drug level in normal rhesus monkey frontal cortex assessed as standard uptake value at 109.4 MBq, iv after 75 mins by microPET; settings: in vivo, 1.25 h
[26] = Drug level in normal rhesus monkey cerebellum assessed as standard uptake value at 109.4 MBq, iv after 117 mins by microPET; settings: in vivo, 1.95 h
[27] = Drug level in normal rhesus monkey pons assessed as standard uptake value at 109.4 MBq, iv after 129 mins by microPET; settings: in vivo, 2.15 h
[28] = Drug level in normal rhesus monkey thalamus assessed as standard uptake value at 81.2 MBq, iv after 135 mins by microPET; settings: in vivo, 2.25 h
[29] = Drug level in normal rhesus monkey frontal cortex assessed as standard uptake value at 81.2 MBq, iv after 165 mins by microPET; settings: in vivo, 2.75 h
[30] = Drug level in normal rhesus monkey cerebellum assessed as standard uptake value at 81.2 MBq, iv after 1.5 mins by microPET; settings: in vivo, 0.025 h
[31] = Drug level in normal rhesus monkey pons assessed as standard uptake value at 81.2 MBq, iv after 27.5 mins by microPET; settings: in vivo
[32] = Drug level in normal rhesus monkey white matter assessed as standard uptake value at 81.2 MBq, iv after 52.5 mins by microPET; settings: in vivo, 0.875 h
[33] = Drug level in normal rhesus monkey thalamus assessed as standard uptake value at 81.2 MBq, iv after 2.5 mins by microPET; settings: in vivo
[34] = Drug level in normal rhesus monkey parietal cortex assessed as standard uptake value at 81.2 MBq, iv after 17.5 mins by microPET; settings: in vivo
[35] = Drug level in normal rhesus monkey frontal cortex assessed as standard uptake value at 81.2 MBq, iv after 175 mins by microPET; settings: in vivo
[36] = Drug level in normal rhesus monkey parietal cortex assessed as standard uptake value at 81.2 MBq, iv after 1.5 mins by microPET; settings: in vivo, 0.025 h
[37] = Drug level in normal rhesus monkey pons assessed as standard uptake value at 81.2 MBq, iv after 85 mins by microPET; settings: in vivo
[38] = Drug level in normal rhesus monkey pons assessed as standard uptake value at 81.2 MBq, iv after 115 mins by microPET; settings: in vivo
[39] = Drug level in normal rhesus monkey cerebellum assessed as standard uptake value at 81.2 MBq, iv after 75 mins by microPET; settings: in vivo, 1.25 h
[40] = Drug level in normal rhesus monkey parietal cortex assessed as standard uptake value at 81.2 MBq, iv after 65 mins by microPET; settings: in vivo
[41] = Drug level in normal rhesus monkey white matter assessed as standard uptake value at 81.2 MBq, iv after 65 mins by microPET; settings: in vivo
[42] = Drug level in normal rhesus monkey pons assessed as standard uptake value at 81.2 MBq, iv after 10 mins by microPET; settings: in vivo
[43] = Drug level in normal rhesus monkey pons assessed as standard uptake value at 81.2 MBq, iv after 75 mins by microPET; settings: in vivo, 1.25 h
[44] = Drug level in normal rhesus monkey pons assessed as standard uptake value at 81.2 MBq, iv after 95 mins by microPET; settings: in vivo

Which SUV [1] does the source give for `CN(C)c1ccc2nc(-c3ccc([18F])cc3)sc2c1` here?
The SUV was 1.88.

What about the SUV [2] of the same compound?
Its SUV is 1.43.

And the SUV [3]?
Its SUV is 1.95.

And the SUV [4]?
Its SUV is 0.54.

And the SUV [5]?
Its SUV is 1.63.

And the SUV [6]?
The SUV was 1.09.

What about the SUV [7] of the same compound?
The SUV was 2.17.

What about the SUV [8] of the same compound?
The SUV was 1.57.

What about the SUV [9] of the same compound?
Its SUV is 1.83.

What about the SUV [10] of the same compound?
Its SUV is 1.69.

What about the SUV [11] of the same compound?
The SUV was 1.76.

What about the SUV [12] of the same compound?
Its SUV is 1.34.

What about the SUV [13] of the same compound?
Its SUV is 0.83.

And the SUV [14]?
Its SUV is 2.09.

What about the SUV [15] of the same compound?
Its SUV is 1.12.

And the SUV [16]?
The SUV was 1.09.

What about the SUV [17] of the same compound?
Its SUV is 1.44.

Which SUV [18] does the source give for `Nc1ccc2nc(-c3ccc([18F])cc3)sc2c1` here?
Its SUV is 3.93.

And the SUV [19]?
The SUV was 3.85.

What about the SUV [20] of the same compound?
Its SUV is 5.17.

What about the SUV [21] of the same compound?
The SUV was 3.62.

What about the SUV [22] of the same compound?
The SUV was 3.41.

And the SUV [23]?
The SUV was 3.7.

And the SUV [24]?
The SUV was 2.86.

What about the SUV [25] of the same compound?
Its SUV is 4.56.

What about the SUV [26] of the same compound?
Its SUV is 2.44.

What about the SUV [27] of the same compound?
Its SUV is 4.86.

For `CNc1ccc2nc(-c3ccc([18F])cc3)sc2c1`, which SUV [28] is on record?
Its SUV is 5.266.

And the SUV [29]?
Its SUV is 4.598.

What about the SUV [30] of the same compound?
Its SUV is 1.669.

What about the SUV [31] of the same compound?
The SUV was 5.233.

What about the SUV [32] of the same compound?
Its SUV is 3.717.

And the SUV [33]?
The SUV was 3.587.

What about the SUV [34] of the same compound?
The SUV was 4.712.

And the SUV [35]?
The SUV was 4.233.

What about the SUV [36] of the same compound?
The SUV was 3.304.

What about the SUV [37] of the same compound?
Its SUV is 5.635.

And the SUV [38]?
Its SUV is 5.362.

What about the SUV [39] of the same compound?
Its SUV is 1.924.

And the SUV [40]?
Its SUV is 3.277.

What about the SUV [41] of the same compound?
The SUV was 3.927.

What about the SUV [42] of the same compound?
Its SUV is 5.455.

And the SUV [43]?
Its SUV is 5.729.

And the SUV [44]?
The SUV was 5.269.
